Patent US20050277600A1, “Compositions and methods of use of dimer digallates” (Mars, Incroporated, priority 2004, published 2005)
At least one compound was matched to its structure with a doubt left.

How the values were obtained:
[1] = tested on: human umbilical vein endothelial cell (HUVEC) NO production; assay: HUVEC NO production (NOx in cell culture medium, chemiluminescence); assay type: cell-based; conditions: for Increase in NOx?: Table 2 summary, HUVEC Cells, Y/N
Experimental: Several compounds were investigated for their effect on nitric oxide (NO) production and vasorelaxation using serum-free human umbilical vein endothelial cell (HUVEC) culture system in vitro and rabbit aortic ring model ex vivo, respectively. NO production by endothelial cells and relaxation of pre-constricted aortic rings are two main markers for evaluating vascular effects of test compounds.
HUVECs obtained from a single donor were cultured in serum free, low protein (0.5 g/l), antibiotic-free cell culture medium supplemented with essential growth factors, nutrients and minerals. […] The cell culture medium was substituted with apo-transferrin, superoxide dismutase, and catalase to exclude secondary effects of test compounds involving their auto-oxidation mediated hydrogen peroxide formation.
NO production was evaluated by measuring the total amount of all major nitric oxide end products (NOx, including nitrate, nitrite, nitrosothiols) present in the cell culture medium. […] The amount of NO released from the culture medium was subsequently evaluated by measuring the chemiluminescence emitted during the stoichiometrical reaction between ozone and NO using a NO Analyzer (Sievers Instruments, Inc. Boulder, Colo.).
The data presented herein were obtained from three experiments and were expressed as the concentration of NO present (in μmol/l) (as NOx) in the cell culture medium+/−standard deviation (SD). The data were corrected for the NOx intrinsically present in the fully supplemented cell culture medium and normalized with respect to the volume of media from which the sample was drawn. Data were analyzed using Student's t-test with a 95% level of confidence. P values equal to or less than 0.05 were defined as statistically significant.
For the acute effect test, HUVECs were incubated with the test compounds for 2 hours at concentrations of 100 nM, 1 μM, and 10 μM at 37° C. and 5% CO2. […] (FIG. 1)
For the chronic effect test, HUVECs were incubated with 5 subsequent doses of test compounds, each for 24 hours. After each 24 hour treatment, culture medium was replaced.
For the acute effect test, HUVECs were incubated with a single dose of the test compounds for 24 hours at concentrations of 100 nM, 1 μM, and 10 μM at 37° C. and 5% CO2.

rabbit aortic rings = assay: Relaxation of norepinephrine pre-constricted rabbit aortic rings ex vivo; conditions: Table 1 summary; for Aortic Ring Relax?: Y/N
Experimental: Several compounds were investigated for their effect on nitric oxide (NO) production and vasorelaxation using serum-free human umbilical vein endothelial cell (HUVEC) culture system in vitro and rabbit aortic ring model ex vivo, respectively. NO production by endothelial cells and relaxation of pre-constricted aortic rings are two main markers for evaluating vascular effects of test compounds. Effect of different procyanidins on endothelium-dependent relaxation was tested in an ex vivo experiment performed as previously described by Karim et al., J. Nutrl Suppl., 130 (8S): […]-[…] (2000), the relevant portions of which are hereby incorporated herein by reference. The advantage of using this method is that it assesses functional vascular end points. […] In summary, rabbit aortic rings were obtained from male New Zealand White rabbits. Following isolation, the rings were mounted in oxygenated Kreb's buffer, and pre-constricted with norepinephrine (NE) (10^-6 M). […] A positive control acetylcholine (10^-9 to 10^-4 M) and a negative control L-NAME were included in the experiment. Use of L-NAME, which is a NO synthase (NOS) inhibitor, allows for differentiating between endothelium dependent and endothelium independent relaxation events. […] The relaxation response was measured as a function of the decrease in the tension (g) exerted by the aortic rings over time […]. Data obtained were expressed as a percent relaxation of the norepinephrine (NE) constricted rings. The same statistical approach as described above was used. Dose response curves were obtained by plotting the average percent relaxation (+/-SE) against the concentrations used.

Structure (SMILES)	Increase in NOx? [1]	Aortic Ring Relax? (rabbit aortic rings)	Aortic Ring Effective Conc, (rabbit aortic rings)	NO production, positive and negative controls ([1]; Experiment 1, acute, 2 hours, compared to vehicle)	NOx production, positive and negative controls ([1]; Experiment 2, single dose, 24 hours, compared to vehicle)
Oc1cc(O)c2c(c1)O[C@H](c1ccc(O)c(O)c1)[C@@H](O)[C@@H]2c1c(O)cc(O)c2c1O[C@H](c1ccc(O)c(O)c1)[C@@H](O)C2 [C-(4α→8)-C, (+)-Catechin-(4α,8)-(+)-Catechin]	Y	Y	–	–	–
Oc1cc(O)c2c(c1)O[C@H](c1ccc(O)c(O)c1)[C@@H](O)[C@H]2c1c(O)cc(O)c2c1O[C@H](c1ccc(O)c(O)c1)[C@@H](O)C2 [C-(4β→8)-C, (+)-Catechin-(4β,8)-(+)-Catechin]	Y	N	–	–	–
O=C(O[C@@H]1[C@@H](c2c(O)cc(O)c3c2O[C@H](c2ccc(O)c(O)c2)[C@H](OC(=O)c2cc(O)c(O)c(O)c2)C3)c2c(O)cc(O)cc2O[C@@H]1c1ccc(O)c(O)c1)c1cc(O)c(O)c(O)c1 [EC-(4β→8)-EC digallate, (−)-Epicatechin-(4β,8)-(−)-Epicatechin Digallate]	Y	Y	10 & 100 uM	–	–
Oc1cc(O)c2c(c1)O[C@H](c1ccc(O)c(O)c1)[C@H](O)[C@H]2c1c(O)cc(O)c2c1O[C@H](c1ccc(O)c(O)c1)[C@@H](O)C2 [EC-(4β→8)-C, (−)-Epicatechin-(4β,8)-(+)-Catechin]	–	N	–	–	–
O=C(O[C@H]1[C@H](c2c(O)cc(O)c3c2O[C@H](c2ccc(O)c(O)c2)[C@H](OC(=O)c2cc(O)c(O)c(O)c2)C3)c2c(O)cc(O)cc2O[C@@H]1c1ccc(O)c(O)c1)c1cc(O)c(O)c(O)c1 [C-(4α→8)-EC digallate, (+)-Catechin-(4α,8)-(−)-Epicatechin Digallate]	N	Y	–	–	–
O=C(O[C@@H]1Cc2c(O)cc(O)cc2O[C@@H]1c1cc(O)c(O)c(O)c1)c1cc(O)c(O)c(O)c1 [EGCG, Epigallocatechingallate, reference compound]	Y	N	–	–	–
CC(=O)OCC[N+](C)(C)C [acetylcholine, reference compound]	–	–	–	statistically significant increase in NO production	statistically significant increase in NOx production
